# The campaign covered roughly 94,000 compounds. About 6,200 (6.6%) were called active. Inconclusive results, whose numbers are uncertain, are shown with a selection of clear calls. Calls come from the whole dose curve; as a rule, active = well fitted inhibition curve with a large enough effect; inconclusive = small, poorly fitted or top-dose-only effect; inactive = flat fitted curve, though single readings scatter. A potency beside an inconclusive call is a rough fit, not a confirmed value.
# Assay: Cytotoxic Profiling in HEK 293 Cell Line of Diverse Libraries Using Quantitative High-Throughput Screening; note: nearly all actives have a fitted effect of over 60% in size
# Settings: HEK 293 viability, ATP luminescence (CellTiter-Glo), 48-72 h; series mostly up to 115 µM
# Procedure, shortened: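 Viability of HEK 293 cells, plated at 250 cells/well, was judged by cellular ATP after compound treatment for 48 or 72 hr. Luminescence was imaged 10 min after CellTiter-Glo addition at room temperature.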
# Potency is the fitted concentration of half-maximal effect; tags give direction and shape of the fitted curve.
row,Compound,Potency
1,COc1ccc(Cn2c(C3CCN(C(=O)COc4ccccc4)CC3)n[nH]c2=O)cc1,inactive
2,Cn1ccc(Nc2nccc3c(=O)cc(-c4cccnc4)oc23)n1,inactive
3,CN1CCCC2(C1)CN(C)c1ccc(C(=O)NCC3CCCCC3)cc12 (centres undefined),active: 112 µM
4,CCc1nc(C)sc1C(=O)N1CCN(C)C2(CCNC(=O)CC2)C1 (centres undefined),inactive
5,Cc1ccc(Cl)cc1-n1nc(-c2c(C)nc3scc(CC(=O)NCC(C)C)n3c2=O)cc1C,"inconclusive: 89.1 µM [inhibitor, single point]"
6,O=[S+]([O-])(NC1CCCN(c2ccnc3ccnn23)C1)c1cccs1 (centres undefined),"inconclusive: 70.8 µM [inhibitor, partial curve, poor fit]"
7,O=C(NC1CC1)c1ccccc1OC1CN(Cc2cc(F)c(F)c(F)c2)C1,"inconclusive: 56.2 µM [inhibitor, partial curve, poor fit]"
8,COc1ccc(C(=O)Nc2nc3c(s2)C[C@@H]2[C@](C)(CO)[C@H](O)CC[C@@]2(C)[C@@H]3CC(=O)NCc2ccccc2)cc1,inactive
9,COc1ccccc1-n1c(=O)c(C(=O)N2CCN(C(=O)c3cccc(Cl)c3)CC2)nc2cccnc21,inactive
10,COc1cncc(Nc2cnc3ccc(-c4cccc(CO)c4)nn23)c1,"inconclusive: 112 µM [inhibitor, single point]"
11,Cn1ccnc1C(=O)N1CCCN(S(=O)(=O)c2ccccc2)CCC(=O)NCC1,inactive
12,Cc1nnc2ccc(N3CCCN(C(=O)NC(C)C)CC3)nn12,inactive
13,CC(C)CCNC(=O)C12CCCC=C1N(c1ccccc1)C(=O)CC2 (centres undefined),inactive
14,CNC(=O)c1cc(C2CC2)nc2c1c(C1CCN(C(=O)C3CCCCC3)CC1)nn2C,inactive
15,COc1cc(OC(F)(F)F)ccc1C(=O)N1CCC(C)(C(=O)O)CC1,inactive
16,Cc1ccc(-c2nc(C3CC(=O)N(c4ccc(F)cc4)C3)no2)cc1 (centres undefined),"inconclusive: 89.1 µM [inhibitor, single point]"
17,Cn1cccc1C(=O)N1CCC(c2nc(-c3cccn3C)no2)CC1,"inconclusive: 56.2 µM [inhibitor, partial curve, poor fit]"
18,COc1cc(SC)ccc1C(=O)N[C@H]1CCN2C(=O)N(c3cccc(SC)c3)C(=O)[C@@H]2C1,"inconclusive: 79.4 µM [inhibitor, partial curve]"
19,Cc1ccccc1Cn1cc(-c2ccncc2)cc1C(=O)N(C)Cc1ccco1,"inconclusive: 50.1 µM [inhibitor, partial curve, poor fit]"
20,COC(=O)[C@H](NC(=O)C1=C[C@@H](NC(=O)c2ccc(SC)cc2OC)[C@@H](O)[C@H](O)C1)C(C)C,inactive
21,CN(C)S(=O)(=O)N1CCCC(C(=O)Nc2cccc(-n3cccn3)c2)C1 (centres undefined),"inconclusive: 79.4 µM [inhibitor, single point]"
22,Cc1ccc(Nc2ccnc(N3CCCC3C(=O)NCc3ccccc3)n2)cc1 (centres undefined),"inconclusive: 35.5 µM [inhibitor, partial curve, poor fit]"

row,Compound,Potency
1,O=C(c1ccccc1OCC1CCCN(C2CCCC2)C1)N1CCCC1 (centres undefined),"inconclusive: 89.1 µM [inhibitor, single point]"
2,CC1CCN(C(=O)c2csc(N3CCN(c4ccc(Cl)cc4)CC3)n2)CC1,"inconclusive: 35.5 µM [inhibitor, partial curve, poor fit]"
3,Cc1ccc(C2Cn3nnc(C(=O)N4CCC(C(=O)NC5CC5)CC4)c3CO2)cc1 (centres undefined),inactive
4,COc1ccc(NC(=O)N2Cc3[nH]cnc3C[C@H]2c2nc(-c3ccc(C)cc3)no2)cc1,"inconclusive: 100 µM [inhibitor, partial curve, poor fit]"
5,CCN1CCN(CC(O)COc2cccc(CNCCCc3scnc3C)c2)CC1 (centres undefined),"inconclusive: 89.1 µM [inhibitor, single point]"
6,Cc1cc(C)cc(NC(=S)N[C@H]2CO[C@H]3[C@@H]2OC[C@@H]3n2nnnc2Oc2cccc(N(C)C)c2)c1,"inconclusive: 28.2 µM [inhibitor, full curve]"
7,O=C(NCCc1ccccc1)c1cc2n(n1)CC(c1ccc3c(c1)OCO3)OC2 (centres undefined),"inconclusive: 50.1 µM [inhibitor, partial curve, poor fit]"
8,COc1ccccc1-c1cc(-c2cccc([S+](C)(=O)[O-])c2)c2onc(C)c2n1,"inconclusive: 56.2 µM [inhibitor, full curve, poor fit]"
9,CCOc1ccccc1CNC(=O)c1noc(-c2ccc(C)cc2)n1,"inconclusive: 15.8 µM [inhibitor, full curve]"
10,CCC(C)NC(=O)N1CC(Oc2cccc(-c3nc(C)no3)c2)C1 (centres undefined),"inconclusive: 44.7 µM [inhibitor, partial curve]"
11,Cc1ccc(-n2cccc2CC(=O)NCc2ccccc2)cc1,"inconclusive: 79.4 µM [inhibitor, single point]"
12,Cc1ccc(C(=O)N2CCC3(CCC(=O)N(Cc4ccccc4)CC3)CC2)s1,"inconclusive: 50.1 µM [inhibitor, partial curve, poor fit]"
13,COc1ccc(-c2ncc(CN3CCCC4(C3)CN(C)C(=O)O4)cn2)cc1 (centres undefined),"inconclusive: 22.4 µM [inhibitor, full curve, poor fit]"
14,N#Cc1cccc(-c2c(C(=O)NCCc3ccc(Cl)cc3)nc3sccn23)c1,inactive
15,CC(Oc1ccccc1)C(=O)N1CCN(C(=O)c2nnn3c2COC(c2ccc(Cl)cc2)C3)CC1 (centres undefined),"inconclusive: 28.2 µM [inhibitor, partial curve]"
16,Cc1ccc(CNC(=O)CN2C(=O)C(c3ccccc3)=NC23CCCCCC3)cc1,"inconclusive: 50.1 µM [inhibitor, partial curve, poor fit]"
17,COc1ccc(-c2cc(C(=O)NC3CCC3)c3cnn(C)c3n2)cc1,inactive
18,O=C(NC1CC1)c1ccccc1OC1CN(Cc2cccc(F)c2)C1,"inconclusive: 79.4 µM [inhibitor, partial curve, poor fit]"
19,COC(=O)[C@H]1CN(C(=O)NC(C)C)CCN1C(=O)CSC,inactive
20,CCN(C(=O)c1ccc2c(c1)N(S(C)(=O)=O)CC2)c1ccccc1C,"inconclusive: 100 µM [inhibitor, single point]"
21,COCCn1nnnc1C1CC2(CCOCC2)C(=O)N1CCc1cccs1 (centres undefined),inactive
22,C[S+](=O)([O-])c1ccc(-c2cc(C(=O)N3CCCCC3)nn3cccc23)cc1,"inconclusive: 50.1 µM [inhibitor, partial curve, poor fit]"

row,Compound,Potency
1,CN(C)C(=O)N1CCCC(c2nc(CCOCC3CCCC3)no2)C1 (centres undefined),"inconclusive: 56.2 µM [inhibitor, partial curve, poor fit]"
2,COc1cccc(S(=O)(=O)N2CCCC(c3nc(C(C)C)no3)CCNC(=O)CC2)c1 (centres undefined),inactive
3,COc1ccc(NC(=O)Cn2c(-c3ccc(F)cc3)nc(C)c(CCO)c2=O)cc1OC,"inconclusive: 56.2 µM [inhibitor, partial curve, poor fit]"
4,CC(C)(C)C(=O)N1CCC(F)(c2nc(-c3ccncc3)no2)CC1,"inconclusive: 79.4 µM [inhibitor, single point]"
5,COCc1nc(-c2ccc(OC3CCN(C(=O)NCc4ccc(F)cc4)C3)cc2)no1 (centres undefined),"inconclusive: 8.91 µM [inhibitor, full curve, poor fit]"
6,N#Cc1ccc(CN2CCC3(CC2)CC(=O)Nc2ccccc2O3)cc1,"inconclusive: 44.7 µM [inhibitor, partial curve, poor fit]"
7,O=C(N[C@@H]1CN(C(=O)c2ccc3ccccc3n2)C[C@H]1CO)c1ccccc1,inactive
8,c1ccc(-c2noc(-c3cncnc3NC3CCc4ccccc43)n2)cc1 (centres undefined),inactive
9,CCCNC(=O)[C@@H]1Cc2cn(Cc3ccccn3)c3cccc(c23)[C@H](CC(C)C)N1,"inconclusive: 22.4 µM [inhibitor, full curve, poor fit]"
10,c1ccc2c(CN3CCC[C@H]3c3nc(-c4ccc(OC5CCCCC5)nc4)no3)c[nH]c2c1,active: 35.5 µM
11,COCCNC(=O)C1CN(c2ccnc3ccnn23)C1,inactive
12,COc1ccc(Cn2c(=O)c(C(=O)N3CCN(C(=O)Cc4ccc(F)cc4)CC3)nc3cccnc32)cc1,"inconclusive: 89.1 µM [inhibitor, single point]"
13,COc1ccccc1-c1ccc2c(C(=O)NCC(F)(F)F)nn(C)c2n1,inactive
14,Cn1ncc2c(C(=O)NCCCNC(=O)OC(C)(C)C)cc(-c3cccc(F)c3)nc21,"inconclusive: 56.2 µM [inhibitor, partial curve, poor fit]"
15,COc1ccc(-c2ccc3ncn(C)c(=O)c3n2)cc1OC,"inconclusive: 50.1 µM [inhibitor, full curve, poor fit]"
16,CC(C)c1ccccc1NC(=O)Cn1cccc1-c1nc(-c2ccccc2)no1,"inconclusive: 89.1 µM [inhibitor, single point]"
17,COc1ccc(NC(=O)[C@@H]2C[C@@H](c3cccc(C(F)(F)F)c3)N(C)C2)c(C)c1,"inconclusive: 70.8 µM [inhibitor, partial curve]"
18,CNC(=O)[C@@H]1CN(C(=O)c2n[nH]c3ccccc23)C[C@H]1COC,"inconclusive: 100 µM [inhibitor, partial curve, poor fit]"
19,O=C(c1ccc2ccccc2n1)N1CCN(C(=O)N2CC3CC(C2)[C@H]2CCCC(=O)N2C3)CC1 (some centres undefined),inactive
20,C[S+](=O)([O-])N1Cc2ccccc2CC2(CCCN2CC2CCCCC2)C1 (centres undefined),"inconclusive: 79.4 µM [inhibitor, partial curve, poor fit]"

# From PubChem BioAssay AID1345083 (National Center for Advancing Translational Sciences (NCATS), 2018)
